Data from the BET-seq Pho4 binding data (Le et al. 2018).
This is one part of the list. These are noisy estimates, calculated here from bound and input reads.

target: T1, Pho4 (S. cerevisiae) (UniProt P07270); test: relative binding free energy (BET-seq); higher = weaker binding; conditions: reference: library average
T1 sequence: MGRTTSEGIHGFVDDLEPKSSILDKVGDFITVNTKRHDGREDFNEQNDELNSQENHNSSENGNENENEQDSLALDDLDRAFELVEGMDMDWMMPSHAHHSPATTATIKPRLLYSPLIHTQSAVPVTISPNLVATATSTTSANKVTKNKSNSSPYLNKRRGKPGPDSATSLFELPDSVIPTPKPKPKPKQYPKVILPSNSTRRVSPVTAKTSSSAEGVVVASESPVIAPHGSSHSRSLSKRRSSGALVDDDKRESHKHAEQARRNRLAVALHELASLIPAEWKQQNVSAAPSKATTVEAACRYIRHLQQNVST

Row | Sequence | relative binding free energy [kcal/mol]
1 | TAGGGCACGTGTGTTC | -0.11
2 | GTGGACACGTGCAGGG | 0.1
3 | GCAGTCACGTGTATGG | 0.2
4 | GTATTCACGTGATATA | 0.25
5 | TAATACACGTGTGCGA | 0.15
6 | TAGGACACGTGTCATT | 0.16
7 | AAAGTCACGTGGGTGG | 0.06
8 | ATGATCACGTGGGCAG | 0.04
9 | ACAGTCACGTGGGGAT | -0.05
10 | CGCGCCACGTGTGGGT | -0.06
11 | ACAATCACGTGGGTTT | 0.11
12 | AATCGCACGTGTAAGG | 0.05
13 | AACAGCACGTGTGTTT | 0.08
14 | GTGAACACGTGATGGC | 0.26
15 | CTCTGCACGTGTGGTT | 0.08
16 | TAAGTCACGTGAGATT | 0.28
17 | GTCTGCACGTGGGCGA | -0.12
18 | AGCGGCACGTGTGTGT | -0.08
19 | GCAGGCACGTGGCGTT | -0.15
20 | ATGTTCACGTGGGAGT | 0.15
21 | TAACGCACGTGATGGG | 0.05
22 | GTTGTCACGTGAACTA | 0.53
23 | TCTTACACGTGTGTGG | 0.12

Row | Sequence | relative binding free energy [kcal/mol]
24 | ATAAGCACGTGATGCG | -0.05
25 | CGGGGCACGTGGGACG | -0.18
26 | AGTGACACGTGATGGT | 0.16
27 | TTAGTCACGTGTCTGC | 0.07
28 | ATTGCCACGTGGTGGG | -0.13
29 | GGTCGCACGTGGAGTC | 0.11
30 | AGAGTCACGTGGTGAG | 0.09
31 | ACGATCACGTGGATGT | 0.2
32 | CCAGTCACGTGGGTGT | -0.14
33 | GCTGTCACGTGTGTAG | 0.25
34 | AAAAACACGTGGAGGG | 0.03
35 | TAAGGCACGTGAGCTG | 0.03
36 | TTTGTCACGTGTGAGC | 0.14
37 | GGGTGCACGTGCACGG | -0.13
38 | TATAGCACGTGTTCTG | -0.19
39 | AAAATCACGTGTATTG | 0.23
40 | GTTGACACGTGTGATT | 0.33
41 | CAGCACACGTGGGGGG | -0.14
42 | TTGGTCACGTGAGGTC | 0.38
43 | AGGTGCACGTGTACTT | -0.02
44 | GTCGTCACGTGTTGCT | 0
45 | CGTGGCACGTGTGGTT | 0.01
46 | TTTTACACGTGATGAT | 0.11

Row | Sequence | relative binding free energy [kcal/mol]
47 | TATGTCACGTGTCCGT | 0.01
48 | CTTTTCACGTGGGATT | 0.12
49 | TTCGTCACGTGTGGTT | 0.11
50 | TAGGGCACGTGGGGGT | -0.28
51 | CTAGGCACGTGGGCCG | -0.16
52 | ATGTCCACGTGTTGTG | -0.08
53 | ACGATCACGTGGTGTA | 0.01
54 | AGCGACACGTGTAGGT | 0.1
55 | GGCGTCACGTGTTCGG | 0.18
56 | TTTAACACGTGACTGG | 0.03
57 | ATTTTCACGTGGTGGT | 0.33
58 | GGGCGCACGTGGTGTG | -0.23
59 | TTACGCACGTGTGTGA | -0.17
60 | CGGTACACGTGTTTAG | 0.05
61 | TTCAGCACGTGGGCTG | -0.25
62 | TACTTCACGTGGAATG | 0.35
63 | ATGAACACGTGTGATG | 0.09
64 | TGGGTCACGTGCCGTT | 0.07
65 | GGGTCCACGTGGCGTG | -0.14
66 | ACGGACACGTGGGTTT | 0.04
67 | TGCATCACGTGATGGT | 0.31
68 | TCGGGCACGTGGGTTT | -0.11
69 | GGAGACACGTGTTGTT | 0.02

Row | Sequence | relative binding free energy [kcal/mol]
70 | AGCATCACGTGGGGCT | 0.03
71 | GCTAGCACGTGAAGGT | 0.24
72 | TTTACCACGTGTGGGA | -0.03
73 | TGGTGCACGTGATGGT | 0.13
74 | CTTGTCACGTGTAAGG | 0.16
75 | ATTAGCACGTGAGAAT | 0.24
76 | TTGGTCACGTGGATTA | 0.19
77 | GTGGTCACGTGAGTCA | 0.47
78 | TGTTGCACGTGAAAAG | 0.22
79 | GGGATCACGTGAATGA | 0.53
80 | CGGTGCACGTGATTTT | 0.24
81 | GGGAACACGTGTGCGG | -0.02
82 | ATTTGCACGTGTTTTG | 0.01
83 | GGAGTCACGTGCAGTA | 0.13
84 | AGTTTCACGTGGTTGG | 0.28
85 | ATCGACACGTGGGAGT | 0.02
86 | GGGATCACGTGCAATG | 0.21
87 | GAGGGCACGTGCCGTG | -0.06
88 | GAGGACACGTGTATTG | -0.03
89 | GTTATCACGTGGGGCA | -0.11
90 | GCCTTCACGTGGGGTA | 0.26
91 | GGTGCCACGTGAAGTG | 0.13
92 | TGAGGCACGTGTTGAT | -0.08

Row | Sequence | relative binding free energy [kcal/mol]
93 | CTGGACACGTGAGGTA | 0.22
94 | TTGCACACGTGATGTA | 0.17
95 | TGCTGCACGTGATTGG | 0.24
96 | TCGTGCACGTGAATGG | 0.21
97 | CGGTGCACGTGCTGTG | -0.06
98 | TGGGCCACGTGGGACG | -0.09
99 | TGACGCACGTGTTGAG | -0.2
100 | TGTGACACGTGAGGCG | 0.13
101 | ATTTCCACGTGTTAAT | 0.07
102 | ATGTTCACGTGTTGCG | 0.27
103 | TGGTTCACGTGGTTGG | 0.35
104 | AGAGACACGTGGGAAT | 0.06
105 | ATTATCACGTGTTAAT | 0.13
106 | TGATTCACGTGATGCT | 0.34
107 | TGTTTCACGTGGAAAC | 0.48
108 | TTGTACACGTGGTGCG | -0.1
109 | TGACGCACGTGATGTG | -0.06
110 | TTATTCACGTGTCGGG | 0.35
111 | GGTGTCACGTGACGTA | 0.15
112 | TGTTTCACGTGTAAAG | 0.37
113 | GTATTCACGTGTATAT | 0.18
114 | ATTGTCACGTGGGAAC | 0.2
115 | ATGGGCACGTGAGAGA | 0.16
